Reference: PubChem BioAssay (NCI)
“And” between values parts separate entries of the source, which are not always exact repeats. Equal values may be shown once.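 Results reflect a 48-hour exposure of cells in 96-well plates to compound at five concentrations. GI50 = concentration required for 50% inhibition of growth. TGI marks complete inhibition of growth.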

Tested on: NCI-H322M lung
Experiment: NCI-60 cell line screen, 48 h

Row | SMILES | TGI | GI50 [µM]
1 | CCOC(=O)CCC(C(=O)OCC)n1nc2ccc(Nc3c(C)[n+]([O-])c4cc(Cl)ccc4[n+]3[O-])cc2n1 (configuration not stated) | > 100 µM | –
2 | COC(=O)C1=NN2c3ccccc3C(=O)OCCC2C1 (configuration not stated) | > 100 µM | –
3 | O=[N+]([O-])c1ccc(NC2OCC(O)C(O)C2O)cc1 (configuration not stated) | > 100 µM | –
4 | Cn1cc2c(n1)c(N/N=C/c1ccccc1)nn1nnnc21 | > 100 µM | –
5 | CC12O[C@H](c3ccccc3)[C@H](c3ccccc3)N1C(=O)C1(C(=O)OCc3ccccc3)CC12 (some centres not stated) | > 100 µM | –
6 | CC(=O)O[C@H]1[C@@H]2[C@@H]3[C@@H](C[C@H]1C)[C@@H](C)CO[C@@]1(C)CC/C=C(/C)C[C@@H]2O[C@@H]31 | > 100 µM | –
7 | C/C(=N\NC(=O)CC(=O)Nc1ccc(Cl)cc1)c1cc2ccccc2oc1=O | > 100 µM | –
8 | CCSc1nc2sc(C)c(C)c2c(=O)n1-c1ccc(C(=O)O)cc1 | > 100 µM | –
9 | CC(=O)OCC1OC(OC2CC3C(C)(C)C(OC(C)=O)CC[C@]3(C)C3CCC45CC4(CC[C@H]5C(C)CC(O)C4OC4(C)C)[C@]23C)C(O)C(O)C1O (some centres not stated) | 1.83 µM and 3.03 µM | 1.47
10 | C[C@@]12CC[C@H]3[C@@H]4CCC(=O)N[C@@]4(C)CC[C@@H]3[C@@]1(C)CC[C@H](OC(=O)Cc1ccc(N(CCCl)CCCl)cc1)C2 | 33 µM | –
11 | FC(F)(F)c1ccc(C=NC23CC4CC(CC(C4)C2)C3)cc1 | > 100 µM | –
12 | COC(=O)c1ccc2n1C1CC3CC(CC2C3)C1 | > 100 µM | –
13 | COC(=O)C1=C(C(=O)OC)C23C=CC=CC24C(C(=O)OC)=C(C(=O)OC)C4C1C3 (configuration not stated) | > 100 µM | –
14 | C=C(C)CCC1CCCCC(CN(C)C)C1=O (configuration not stated) | > 100 µM | –
15 | Cc1cc(S(=O)(=O)Nc2nc3ccsc3c(=O)n2Cc2ccco2)c(S)cc1Cl | > 100 µM | > 100
16 | O=[N+]([O-])c1ccc(Cl)cc1C1ON=C(c2ccccc2)N1C12CC3CC(CC(C3)C1)C2 (configuration not stated) | > 100 µM | –
17 | C=CCN1C(=O)/C(=C/c2ccc(C)cc2)N=C1SC/C=C/C | > 100 µM | –
18 | O=C(O)c1c(-c2c3ccc(=O)cc-3oc3cc(O)ccc23)cc2ccccc2c1-c1ccccc1 | > 100 µM | –
19 | CC(C)(C)OC(=O)NCCCCCCCCn1c2c(c3ccccc3c1=O)C(=O)c1ccccc1-2 | > 50 µM | > 21.6
20 | C(CCc1nnc2c(n1)CCCC2)Cc1nnc2c(n1)CCCC2 | > 100 µM | –
21 | c1ccc2c(c1)CCc1c-2n(CCN2CCCCC2)c2ccccc12 | 41.3 µM | –
22 | Cc1ccc(S(=O)(=O)Oc2ccc3c4c(c(=O)oc3c2)CCCCC4)cc1 | > 100 µM | > 100
23 | Cc1cccc(-c2cc(=O)c3ccc(C)nc3[nH]2)c1 | > 100 µM | –
24 | NC(=O)c1[nH]nc(C2OC(CO)C(O)C2O)c1O (configuration not stated) | 3720 µM | –

Row | SMILES | TGI | GI50 [µM]
25 | C=CCNC1=C(C(=O)OCC)C(=O)CO1 | > 100 µM | –
26 | N#CC1C(=O)Nc2sc(C(=O)c3ccc(Br)cc3)c(N)c2C12CCCCC2 (configuration not stated) | > 100 µM | –
27 | CN(C)c1ccc(/C=C/c2sc3ccc4ccccc4c3[n+]2C)cc1 | 2.5 µM | 0.436
28 | COc1ccc(-c2cnc(-c3ccc(F)cc3)[nH]2)cc1 | 21.8 µM | 7.14
29 | COc1cc(-c2oc3c(OC)c(OC)cc(O)c3c(=O)c2OC)ccc1O | 42.1 µM | –
30 | Nc1nc2c(c3ncccc13)C(c1cccc(Cl)c1)Cc1ncccc1-2 (configuration not stated) | > 100 µM | 10.6
31 | COc1cc2cc(Oc3ccc(NC(=O)Nc4ccccc4)cc3)c(C)nc2cc1OCCN1CCCCC1 | 10.1 µM | 5.52
32 | NC1CC2C3CCC2C1C3=O (configuration not stated) | > 100 µM | –
33 | COc1cccc(/C=C/C(=O)c2ccc(Cl)cc2Cl)c1OC | 27.8 µM | 14.3
34 | CCCCCCCCCCCCCCCCCCNc1ccn(C2OC(COP(=O)(O)O)C(O)C2O)c(=O)n1 (configuration not stated) | > 100 µM | –
35 | C=C1CC/C=C(/C(=O)O)CC[C@H]2[C@@H]1CC2(C)C | > 100 µM | –
36 | NCCNCC(O)CO (configuration not stated) | > 100 µM | –
37 | O=S(=O)(O)CCS | > 100 µM | –
38 | COc1ccc(/C(Cl)=C(\C=O)c2ccc(F)cc2)cc1 | 73.3 µM | –
39 | Cc1cc(=O)oc2cc(OC(=O)Nc3ccc(Cl)c(Cl)c3)ccc12 | > 100 µM | –
40 | Cc1c(O)c(=O)ccn1C1OC(CO)C(O)C1O (configuration not stated) | > 100 µM | –
41 | O=c1nc2n(cc1/C=C\Br)C1CC(O)C(CO2)O1 (configuration not stated) | > 100 µM | –
42 | C=C1C(=O)OC2/C=C(\C)C(O)CC(O)C(C)(O)CC(OC(=O)/C(C)=C/C)C12 (configuration not stated) | > 100 µM | –
43 | O=C1Oc2ccccc2C(=O)/C1=C/N1C(=O)/C(=C/c2ccc([N+](=O)[O-])cc2)SC1=S | > 100 µM | –
44 | Cc1nc2c(nc1C)-c1c(c3c(n1Cc1ccccc1)C(=O)CCC3)C(=O)C2=O | 35.9 µM | –
45 | CCCCCCCCCCCCCC1=NCC[N+]1(CCO)Cc1ccccc1 (configuration not stated) | 3.34 µM | 1.68
46 | O=c1c2cc(Br)ccc2oc2nc3n(c(=O)c12)CCCS3 | > 100 µM | –
47 | Cn1c(C(C#N)c2cc(Cl)ncn2)nc2ccccc21 (configuration not stated) | > 100 µM | –
48 | O=C(O)CCC1COc2ccccc2O1 (configuration not stated) | > 10 µM | –

Row | SMILES | TGI | GI50 [µM]
49 | O=C(CSc1nnc(Cc2ccccc2)o1)Nc1ccc(Cl)cc1 | > 100 µM | –
50 | NC(=O)c1n[nH]n(-c2ccccc2)c1=O | > 100 µM | –
51 | COC(=O)c1ccccc1NC(=O)C(=O)CC(=O)c1ccccc1NC1=CC(=O)C(=O)c2ccccc21 | 35.4 µM | –
52 | Cc1ccc(NS(=O)(=O)c2cc(C(C)(C)C)ccc2OCCOCCOCCOc2ccc(C(C)(C)C)cc2S(=O)(=O)Nc2ccc(C)cc2)cc1 | > 100 µM | –
53 | COc1ncc(-c2nc3c(n2C(C)C)[C@H](c2ccc(Cl)cc2)N(c2cc(Cl)cn(C)c2=O)C3=O)c(OC)n1 | > 100 µM | > 100
54 | CC1=C(C(=O)OCCO[N+](=O)[O-])C(c2ccccc2C(F)(F)F)C(C(=O)OC(C)C)=C(C)N1 (configuration not stated) | > 100 µM | –
55 | Cc1ccc(S(=O)(=O)CNC(=S)CCCC(=S)NCS(=O)(=O)c2ccc(C)cc2)cc1 | > 100 µM | –
56 | CN1CCN(CC(=O)Nc2ccc3ncnc(Nc4ccc(Oc5cccc(C(F)(F)F)c5)c(Cl)c4)c3c2)CC1 | 2.57 µM | 1.29
57 | CCOP(=O)(CC(=O)C1=C(O)C(CCCNC(=O)OC(C)(C)C)N(Cc2ccc(OC)c(OC)c2)C1=O)OCC (configuration not stated) | > 100 µM | –
58 | Cc1cc(Cc2cc(C)c(NC(=O)C(=O)C3C(=O)NC(=S)NC3=O)c(C(C)C)c2)cc(C(C)C)c1NC(=O)C(=O)C1C(=O)NC(=S)NC1=O | > 100 µM | –
59 | CCCCn1c2c(c3ccccc3c1=O)C(=O)c1ccccc1-2 | > 100 µM | –
60 | C#CCN1CCN(C(=S)N/N=C(\C)c2ccccn2)CC1 | 6.34 µM and 5.93 µM | 0.0215
61 | Cc1cc(C)c2c(n1)S(=O)(=O)N(CCCN1CCN(c3cccc(C(F)(F)F)c3)CC1)/C(=C(\O)c1ccccc1)C2=O | > 100 µM | –
62 | Nc1c(C(=O)c2cccc(OCCN3CCOCC3)c2)cnn1-c1ccc(F)cc1 | > 25 µM | > 25
63 | N#C/C(=C\c1ccc(Br)cc1)n1nnc2cccc(F)c21 | 3.29 µM | 1.7
64 | N[C@@H]1c2c(Br)sc(Br)c2[C@H](O)[C@@H]1O | > 100 µM | –
65 | COc1cccc(NCC(=O)Nn2c(-c3ccccc3)nc3ccccc3c2=O)c1 | > 100 µM | –
66 | COc1ccc(C2NCCc3c2[nH]c2ccccc32)cc1CN1CCN(c2ccc(F)cc2)CC1 (configuration not stated) | 6.1 µM | 2.26
67 | CCC(=O)OC1CCn2c1nc1c2C(=O)C(C)=C(N2CC2)C1=O (configuration not stated) | 1.74 µM | –
68 | COc1c2ccccc2c(O)c2c(=O)c(C(=O)O)cn(C)c12 | > 100 µM | 72.9
69 | COc1cc(NN=C(c2ccc(O)cc2)c2ccc(O)cc2)c([N+](=O)[O-])cc1[N+](=O)[O-] | 25.4 µM | 11.6
70 | C=C1C(=O)O[C@H]2[C@H]1CC/C(COC(=O)C(=O)c1c[nH]c3ccc(OC)cc13)=C\CC[C@@]1(C)O[C@@H]21 | 13.3 µM | 7.53
71 | N#C/C(=C/c1cccnc1)C(=O)c1ccccc1 | > 100 µM | –
72 | O=C1CN(c2ccc(Cl)cc2)C(=O)CN1CCN1CC(=O)N(c2ccc(Cl)cc2)CC1=O | > 100 µM | –

Row | SMILES | TGI | GI50 [µM]
73 | COC(=O)c1ccc(=O)c2nc3/c(=C/O)c(O)cc(=O)c3[nH]c12 | 18.8 µM and 17.9 µM | 1.27
74 | Cc1ccc(/C=C2\NC(=S)N(CN3CCOCC3)C2=O)cc1 | > 100 µM | –
75 | COc1ccc(CNc2nc(NCc3ccc(OC)cc3)nc(Nc3ccccc3)n2)cc1 | > 100 µM | –
76 | COc1cc2c3c(n(CCN)c(=O)c2cc1OC)-c1cc2c(cc1C3=O)OCO2 | 2.71 µM | 1.22
77 | COC(=O)[C@H]1[C@H](C(=O)OC)[C@@H](C)c2c(ccc3c2[nH]c2ccccc23)[C@@H]1C | > 100 µM | –
78 | O=C1C(Cl)=C(Nc2ccc3cn[nH]c3c2)C(=O)c2ccccc21 | 8.62 µM | 2.21
79 | Cc1ccc(C(=O)CC(Cl)=C(Cl)Cl)cc1 | > 100 µM | –
80 | Nc1nc2ccc([C@@H]3Nc4ccc5[nH]ncc5c4[C@H]4[C@H]5CCC(C5)[C@H]43)cc2s1 | 3.53 µM | 1.68
81 | CN(C)C(=O)CC(C(=O)O)c1c[nH]c2ccccc12 (configuration not stated) | > 100 µM | –
82 | O=S(=O)(NC(=S)Nc1ccccc1)c1ccc(N2N=C3c4ccccc4CC3C2c2cccs2)cc1 (configuration not stated) | 23.5 µM | 5.67
83 | CCC(=O)OCc1ccc2oc(=O)c(C(=O)Oc3cncc(Cl)c3)cc2c1 | > 100 µM | –
84 | Cc1cc(O)c2c(c1)C(=O)c1cc(O)cc(O)c1C2=O | > 78.1 µM | –
85 | COc1cc(/C=C2\N=C(c3ccccc3)N(C3Nc4cc5c(cc4S3)NC(N3C(=O)/C(=C/c4cc(OC)c(OC)c(OC)c4)N=C3c3ccccc3)S5)C2=O)cc(OC)c1OC (configuration not stated) | > 100 µM | –
86 | CC(C)(C)c1cc(-c2ccc(-c3cc(C(C)(C)C)c(O)c(C(C)(C)C)c3)cc2)cc(C(C)(C)C)c1O | > 100 µM | –
87 | CCc1cccc(C(C)C)c1NC(=O)C(=O)C(C(=O)C(=O)OC)c1nc2ccccc2[nH]c1=O (configuration not stated) | > 100 µM | –
88 | O=C(O)c1cc2ccccc2c(N=Nc2c([N+](=O)[O-])cc([N+](=O)[O-])cc2S(=O)(=O)O)c1O | > 100 µM | –
89 | COC1=CC(=O)C(O)=C(C[C@@]2(C)[C@@H]3CCC[C@H](COC(=O)CCCCCNC(=O)OC(C)(C)C)[C@@]3(C)CC[C@@H]2C)C1=O | > 10 µM | –
90 | CCCCCCCCCCCCCC/C(C(=O)OC)=C(/O)C(=O)OCC | > 100 µM | –
91 | O=c1cccc(C#Cc2ccccc2)o1 | 19.5 µM | 7.04
92 | COc1ccc(/C=C2\CN(C)CC3=C2OC(N)=C(C#N)C3c2ccc(OC)cc2)cc1 (configuration not stated) | > 100 µM | –
93 | CN(C)CCNCc1c2ccccc2c(CNCCN(C)C)c2ccccc12 | 53.5 µM | –
94 | CC(CN)[C@@H]1CC[C@]2(CO)CC[C@]3(C)[C@H](CC[C@@H]4[C@@]5(C)CCC(NCCO)C(C)(C)[C@@H]5CC[C@]43C)[C@@H]12 (some centres not stated) | 6.38 µM | 2.4
95 | Oc1ccc2c(c1)OCC(O)(c1ccccc1O)C2 (configuration not stated) | > 100 µM | –
96 | CC1CCCC(C(O)CC2CC(=O)N(c3ccccc3)C(=O)C2)C1=O (configuration not stated) | > 100 µM | –
